Results taken from PubChem BioAssay AID493208 (National Center for Advancing Translational Sciences (NCATS), 2011).
About 340 (0.77%) of roughly 44,000 compounds were called active. Not shown: some 5% with an inconclusive outcome. Calls come from the whole dose curve; as a rule, active = well fitted inhibition curve with a large enough effect; inconclusive = small, poorly fitted or top-dose-only effect; inactive = flat fitted curve, though single readings scatter. The list shows a part of the results.

Experiment: Acumen qHTS Assay for Inhibitors of the mTORC1 Signaling Pathway in MEF (Tsc2-/-, p53-/-) Cells: Sytravon;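 note: plate controls were DMSO for no effect and rapamycin for full effect; nearly all actives have a fitted effect of over 50% in size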
Settings: phospho-rpS6 immunofluorescence/PI, 24 h; series mostly up to 38.3 µM; activity change, negative = inhibition: at the top concentration
Procedure, shortened: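 Immunofluorescence of rpS6 phosphorylation in Tsc2-/-, p53-/- MEFs after 24 h compound exposure, normalized to propidium iodide signal. Activity is expressed as % positive cells, thresholded with 7.5 nM rapamycin.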

Activity change, negative = inhibition, inactive:
COc1ccc(C)cc1NC(=O)CN(c1cc(C(F)(F)F)ccc1Cl)S(C)(=O)=O 1.59%
CCc1cccc(C)c1NC(=O)c1cc(C)nc2c1c(C)nn2-c1cccc(Cl)c1C -1.37%
COc1cc(NC(=O)c2cc(Cl)c(OC)c(Cl)c2)ccc1NC(=O)c1cc2ccccc2o1 4.43%
Cc1cc(OC(=O)c2cc(-c3ccc4c(c3)OCCO4)on2)ccc1Cl -1.3%
Cc1ccc(CN2CCCn3nc(C(=O)NCCc4ccc(Cl)cc4)cc3C2=O)cc1 -1.4%
COc1ccccc1CNC(=O)CCn1c(=O)c2ccccc2n(CC(=O)Nc2ccc(C)cc2C)c1=O 1.93%
CN1c2ccccc2-c2nc(SCC(=O)Nc3ccccc3C(F)(F)F)ncc2S1(=O)=O -4.52%
CCc1nn2c(=O)c(S(=O)(=O)Nc3ccc(OC)c(Cl)c3)c(C)nc2s1 1.19%
Cc1ccc(CSc2nc3ccc(NC(=O)C(C)C)cc3s2)cc1 -1.29%
CCN(Cc1ccccc1)C(=O)Cn1c(=O)n(Cc2ccccc2)c(=O)c2c1c1cc(OC)ccc1n2C 0.729%
O=C(NCC(c1cccnc1)N1CCN(Cc2ccccc2)CC1)C(=O)Nc1ccc(Cl)cc1 (stereo not given) 10.4%
COc1ccc(C(CC(=O)Nc2ccc(C)c(C)c2)N2Cc3ccccc3C2=O)cc1OC (stereo not given) -2.28%
CC(C)c1ccc(S(=O)(=O)c2nnn3c2nc(NC2CCCC2)c2sccc23)cc1 -0.0942%
Cc1ccc(CSCC(=O)N2CCN(c3ccc(F)cc3)CC2)cc1 0.685%
Cc1ccc2c(=O)cc(CSc3ccccc3)[nH]c2c1C 1.59%
Cc1nc(CC(=O)Nc2cccc(C)c2C)cs1 0.667%
CC(=O)c1cccc(S(=O)(=O)NCCc2csc3nc(-c4ccc(F)cc4)nn23)c1 2.34%
Cc1cccc(N(CC(=O)Nc2ccc(Br)cc2)S(C)(=O)=O)c1C 0.657%
COc1ccc(C(=O)NCc2ccc3c(c2)CCN3C(=O)c2ccncc2)cc1 0.566%
O=S(=O)(c1ccc2ccccc2c1)n1nc(-c2ccco2)nc1NCc1ccc(F)cc1 -2.3%
Cc1cc(NC(=O)CCCn2c(C)c3cnn(-c4ccccc4)c(=O)c3c2C)ccc1Br 1.14%
CCOc1ccccc1NC(=O)CN1C(=O)CC(c2ccco2)Sc2ccccc21 (stereo not given) -16%
Cc1cc(C)cc(C(=O)N(Cc2nc(-c3ccc(Cl)cc3)no2)C(C)C)c1 -9.76%
COCCNC(=O)C(=O)NCC(c1ccc2c(c1)OCO2)N1CCOCC1 (stereo not given) 1.67%
CCN(C(=O)CSc1ncc(S(=O)(=O)c2ccc(C)c(Cl)c2)c(=O)[nH]1)c1cccc(C)c1 -6.17%
COC(=O)c1ccc(OCC(O)Cn2cnc3cc(C)c(C)cc32)cc1 (stereo not given) 0.0223%
Cc1ccc(C(=O)Nc2ccc(-c3nc4ccccc4s3)c(O)c2)c(C)c1 -3.69%
CCCCN(C)CCNC(=O)c1cc(=O)[nH]c2ccc(S(=O)(=O)N3CCCCCC3)cc12 7.61%
Cc1cc(NC(=O)c2ccc(-c3ccc(Cl)cc3)o2)cc(-c2nc3ncccc3o2)c1O -1.4%
Cc1ccc(CNC(=O)c2cnc(N(C)C)nc2)cc1 1.12%
Cc1nc(-n2nc(C)c(Cc3ccccc3Cl)c2C)sc1C(=O)N1CCCCC1C (stereo not given) -7.82%
COc1ccc(NC(=O)c2oc3ccccc3c2NC(=O)c2cc(=O)c3c(C)cc(C)cc3o2)cc1 2.31%
Cc1ccc(NC(=O)c2ncn(-c3ccccc3)n2)cc1Cl -20.6%
COc1ccc(-c2nc(C(=O)Nc3cccc(C(C)=O)c3)nn2-c2ccc(Cl)cc2)cc1 0.929%
Cc1ccc(NC(=O)CS(=O)(=O)c2nc(-c3ccc(C)cc3)cn2-c2ccc(C)cc2)cc1 -17.9%
CCOc1ccccc1NC(=O)CC1C(=O)NCCN1C(=O)c1ccc(F)cc1 (stereo not given) -12.6%
COc1ccc(OC)c(Nc2nc3ccccc3n3c(C)nnc23)c1 1.66%
O=C(Nc1cc(-c2nc3cc(Cl)ccc3o2)ccc1Cl)c1cccs1 -3.7%
C#CC(C)(CC)NC(=O)Cn1nnc(-c2ccc(OCc3ccccc3F)cc2)n1 (stereo not given) -10.6%
COc1ccc(COC(=O)c2[nH]c3c(c2C)C(=O)CC(c2ccc(OC)c(OC)c2)C3)cc1 (stereo not given) -17.3%
COc1ccccc1-c1c(C)nn2c(N3CCN(c4cccc(Cl)c4)CC3)cc(C)nc12 -0.826%
Cc1c(NS(=O)(=O)c2cccc(C(=O)O)c2)c(=O)n(-c2ccccc2)n1C -1.65%
COc1ccc(OC)c(NC(=O)c2cc3c(s2)-c2ccccc2SC3)c1 -4%
CCC(=O)N1c2ccccc2CC1C(=O)NCc1ccccc1C (stereo not given) 0%
O=C(CSc1nnc(CNC(=O)c2c(F)cccc2Cl)o1)Nc1ccccc1F -3.05%
Cc1ccc(-n2ncc(C(=O)NC3CCCC3)c2C2CCN(C(=O)OC(C)(C)C)CC2)c(C)c1 6.72%
CS(=O)(=O)c1ncc(N(Cc2ccco2)Cc2ccco2)c(C(=O)Nc2ccccc2Br)n1 -0.144%
CC1=C(C(=O)OCc2ccc(C)cc2)C(c2c(Cl)cccc2Cl)CC(=O)N1 (stereo not given) -9.63%
Cc1ccc(C)c(NS(=O)(=O)c2ccc3c4c(cccc24)C(=O)N3)c1 -10.8%
COc1cccc(Cn2nnc3c(=O)[nH]c(C4CCCN(C(=O)c5ccc(C)cc5)C4)nc32)c1 (stereo not given) -0.758%
CNc1nc(Oc2ccc(=O)n(C)n2)nc(N2CCOCC2)n1 3.65%
Cn1c(SCC(=O)N2CCCc3ccccc32)ncc(C(=O)Nc2ccc(Cl)cc2)c1=O -4.9%
COc1cccc(CN(Cc2ccco2)c2cnc(S(C)(=O)=O)nc2C(=O)Nc2cccc(Cl)c2C)c1 2.73%
CCc1nc2nc(C)cc(Nc3ccc(OC)cc3)n2n1 -3.09%
CN(C1CCCCC1)S(=O)(=O)c1ccc2c(c1)c(=O)c(C(=O)NCCc1ccc(Cl)cc1)cn2C -2.54%
Cc1ccc(-c2nnc(Nc3cccc(Cl)c3)c3ccccc23)cc1S(=O)(=O)NCC1CCCO1 (stereo not given) -3.75%
CSCCC(NS(=O)(=O)c1ccc2c(c1)oc(=O)n2C)C(=O)NCCc1ccc(C)cc1 (stereo not given) -4.94%
O=S(=O)(NCCSc1nnnn1-c1ccccc1)c1ccc(F)cc1 2.72%
Cc1ccc(-c2onc(C)c2C)cc1S(=O)(=O)NCc1ccco1 0%
COc1cccc(OCCCCn2c(-c3ccc(Cl)cc3)nc3ccccc3c2=O)c1 6.93%
O=C(c1cccc([N+](=O)[O-])c1)N1c2ncnn2C2(CCCCC2)[C@@H]2CCCC[C@@H]21 -11.3%
CC(=O)Nc1ccc(S(=O)(=O)NC2(C(F)(F)F)NC(=O)N(c3ccc(C)cc3)C2=O)cc1 (stereo not given) -3%
CCOc1cc(C(=O)Nc2cccc(-c3nc4ccccc4o3)c2)cc(OCC)c1OCC -13.9%
Cc1ccc(S(=O)(=O)c2cnc(SCC(=O)Nc3ccc4c(c3)OCCO4)[nH]c2=O)cc1 0.119%
Cc1cc(Nc2ccc(C)c(C)c2)n2cnnc2n1 -2.03%
COc1ccc2c(c1)c1c(c(=O)n(-c3ccccc3C)c(=O)n1CC(=O)NCc1ccc(C)cc1)n2C -3.92%
Cc1ccc(S(=O)(=O)c2cnc(SCC(=O)Nc3cc(C)cc(C)c3)nc2N)cc1 -0.818%
CCCCc1ccc(-n2nc3cc(C)c(NC(=O)Cc4ccccc4)cc3n2)cc1 -2.02%
Cc1ccc2cccc(NC(=O)COc3ccccc3[N+](=O)[O-])c2n1 1.03%
COC(=O)c1ccccc1NC(=O)Cn1cc(S(=O)(=O)Cc2ccccc2F)c2ccccc21 1.1%
CCOC(=O)c1c(C)oc2nc(C)nc(NCc3ccccc3Cl)c12 1.1%
CCN(CC)c1ccc(NC(=O)CSc2nnc(C)c(=O)[nH]2)cc1 0.524%
Cc1cccc(CN2C(=O)c3ccccc3Sc3ccc(C(=O)N4CCCC4)cc32)c1 1.56%
CCOC(=O)c1c(NC(=O)COc2ccccc2F)sc2c1CCCC2 -5.83%
CCc1ccc(N(CC)C(=O)c2ccc3c(=O)n4c(nc3c2)CCCCC4)cc1 -0.101%
COC(=O)c1c(-c2cccs2)csc1NC(=O)c1ccc(Cl)cc1 -1.67%
COCCN1C(=O)c2[nH]nc(-c3ccccc3O)c2C1c1ccc(OCc2ccccc2)c(OC)c1 (stereo not given) -13.8%
COc1ccccc1Nc1nn2c(=O)c3ccc(C(=O)NCc4cccs4)cc3nc2s1 -5.43%
COc1ccc(-c2cn3c(n2)sc2cc(C(=O)NCc4ccccc4OC)ccc23)cc1 -3.07%
COC(=O)c1cc(S(=O)(=O)NCC2CCN(Cc3cc(C)ccc3C)CC2)c[nH]1 -6.07%
COc1ccc(N2CCN(C(=O)c3ccc(C)c(NC(=O)c4nsc5ccccc45)c3)CC2)cc1 -12.6%
COc1ccc(OC)c(S(=O)(=O)NCCc2sc(-c3ccc(C)cc3)nc2C)c1 -7.05%
CCOC(=O)c1c(NC(=O)/C=C/c2ccccc2)sc2c1CCCC2 12.6%
Cc1ccc2c(=O)c(C(=O)c3ccc(F)cc3)cn(CC(=O)NCc3ccccc3)c2n1 2.96%
COc1cccc(Cn2c(CNC(=O)C(C)C)nc3cccnc32)c1 2.48%
COc1ccc(C(=O)Nc2ccc(-c3nc4ncccc4o3)cc2)cc1 -0.772%
CC(C)(C)OC(=O)N1CCC(c2c(C(=O)NCc3ccccn3)cnn2-c2ccccc2)CC1 6.13%
O=C(CSc1ncc2c(n1)-c1cc(Cl)ccc1N(Cc1ccccc1)S2(=O)=O)NCCc1ccccc1 0.913%
COc1ccc(NC(=O)c2cccn2-c2nnc(N3CCCCC3)s2)c(OC)c1 2.5%
CCOC(=O)COc1cc(C)c(Cl)cc1C(=O)c1ccn2nc(-c3ccc(OC)cc3)cc2n1 -0.308%
CCc1nn(CC(=O)NCCc2ccc(OC)c(OC)c2)c(=O)c2cc3occc3n12 -2.37%
CCOC(=O)c1ccc(NC(=O)CSc2nc(-c3ccc(F)cc3)cc(C(F)(F)F)c2C#N)cc1 -5.45%
CCOc1ccc(NC(=O)C2=C(C)C(=O)OC23CCC(C)CC3)cc1 (stereo not given) -2.24%
COc1ccccc1NC(=O)c1ccc(-c2nc(COc3ccc(C)cc3)c(C)o2)cc1 -7.06%
Cc1ccc(NC(=O)Nc2c(C)n(C)n(-c3ccccc3)c2=O)c(Cl)c1 -19%
